# From patent publication US20240287071A1, “CLASS OF IMIDAZOLIDINOPYRIMIDONE COMPOUNDS AND USE THEREOF IN TREATMENT OF HSCLPP-MEDIATED DISEASES” (SICHUAN UNIVERSITY, priority 2021, published 2024)
# Columns and labels:
# A549 = test: CCK-8 in vitro anti-tumor proliferation assay; assay type: cell-based; conditions: Homo sapiens, Table 3, 72 hours
# Procedure: (§1) Example 3: In vitro anti-tumor proliferation assay of the compounds. The purpose of this experiment was to use CCK-8 to detect the in vitro inhibitory activity of the compounds of the present invention against the proliferation of tumor cells. The main reagents, such as RPMI-1640, DMEM high-glucose culture medium, fetal bovine serum, trypsin, etc., were purchased from Gibco BRL. CCK8 and DMSO were products of Sigma. For in vitro experiment, the test compounds were prepared as 10 mM stock solutions in DMSO and stored at −20° C. in the refrigerator in the dark for later use, then diluted to desired concentration with complete culture medium before use. The human lung cancer cells, colon cancer cells, breast cancer cells, glioblastoma cells, human myelomonocytic leukemia cells, and human Burkitt's lymphoma cells used in this experiment were all purchased from the American ATCC company and preserved in laboratory of the inventors. All the above cell lines were cultured in RPMI-1640 complete medium or DMEM complete medium containing 10% fetal bovine serum, 100 U/mL penicillin, and 100 μg/mL streptomycin under 5% carbon dioxide, 37° C. conditions. […] The previous culture medium was discarded, fresh culture medium was added to resuspend the cells, and then the cells were counted. According to the growth rate of different cells, the cell seeding concentration was determined, generally being 3000-5000 cells/well. After determining the seeding concentration, the cell suspension was diluted to desired concentrations with fresh culture medium, and then added to a 96-well plate with 100 μL per well, and 200 μL of PBS was added to the edge wells to prevent evaporation of the culture medium. On the second day, drug treatment was performed. First, the compounds were diluted into a series of gradients with culture medium, and then the drug solution was added to the 96-well plate, with 3 parallel wells for each gradient. Each plate set a blank control group, and ONC201 was used as the positive control group.
# MV-4-11 = test: CCK-8 in vitro anti-tumor proliferation assay; assay type: cell-based; conditions: Homo sapiens, MV4-11; Table 3; 72 hours
# Procedure: as §1
# Raji = test: CCK-8 in vitro anti-tumor proliferation assay; assay type: cell-based; conditions: Homo sapiens, Table 3, 72 hours
# Procedure: as §1
# A172 = test: CCK-8 in vitro anti-tumor proliferation assay; assay type: cell-based; conditions: Homo sapiens, A 172; Table 3; 72 hours
# Procedure: as §1
# HCT116 cells [1] = test: Apoptosis, Annexin V/PI staining; conditions: 12.5 nM; FIG. 10
# HCT116 cells [2] = test: Cell cycle arrest, flow cytometry; assay type: cell-based, human; conditions: control group 26%, FIG. 9
# Source text: As the concentration increased, the number of GO/G1 phase cells increased linearly. […] […]. […] […].
# HsClpP in HCT116 cells = biological target: T1, HsClpP in HCT116 cells (Homo sapiens, UniProt Q16740); test: Cellular Thermal Shift Assay (CETSA); assay type: cell-based; conditions: 100 μM, 30 minutes, 46-74° C.; FIG. 5
# T1 construct: HCT116 cells in logarithmic growth phase are incubated with 100 μM of compound for 30 minutes; endogenous in cells; host or cells: HCT116
# T1 sequence (Q16740 57-277): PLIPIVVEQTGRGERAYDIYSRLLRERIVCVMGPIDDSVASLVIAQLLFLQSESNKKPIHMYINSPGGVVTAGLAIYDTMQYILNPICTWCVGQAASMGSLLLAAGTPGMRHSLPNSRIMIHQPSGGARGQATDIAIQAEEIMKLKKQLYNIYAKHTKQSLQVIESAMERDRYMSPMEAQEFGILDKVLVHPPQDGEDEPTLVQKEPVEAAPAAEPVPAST
# HCT116 cells [3] = test: Mitochondrial membrane potential, TMRM probe; assay type: cell-based, human; conditions: compared to ONC201; FIG. 6
# Procedure: In this study, the membrane potential changes are tested using the tetramethylrhodamine methyl ester (TMRM) probe.
# HCT116 cells [4] = test: Colony formation assay, crystal violet; assay type: cell-based, human; conditions: 12.5nM, 25nM, and 50nM; FIG. 11
# Source text: Example 11: In vitro Antitumor Cell Colony Formation Assay of preferred Compound. In addition to being closely associated with the proliferation of tumor cells, the regulation of HsClpP also induces cell cycle arrest and the formation of clones. In this experiment, HCT116 cells were used for a cell monoclonal experiment, and stained with crystal violet.
# HCT116 cells [5] = test: ROS generation, DCFH-DA staining; assay type: cell-based, human; conditions: 48 hours; different concentrations; FIG. 8
# Source text: In cancer cells, mitochondrial reactive oxygen species (ROS) are closely associated with tumorigenesis. Disruption of HsClpP function increases the generation of mitochondrial ROS, thereby inducing apoptosis in tumor cells. […] Changes in intracellular ROS content were observed under a fluorescence microscope.
# HsClpP = HsClpP (Homo sapiens, UniProt Q16740); test: Differential Scanning Fluorimetry (DSF); assay type: binding; conditions: 100 μM compound, 10 μM HsClpP; DMSO blank; FIG. 4
# Procedure: Detection was carried out using an RT-PCR instrument for fluorescence detection. The melting curve was selected, with the temperature setting to rise from 25° C. to 99° C. within 40 minutes. Fluorescence detection was performed using the SSYPRO Orange channel, and the data were recorded.
# [6] = tested on: rat myocardial cells (H9C2); test: In vitro cytotoxicity assay, CCK-8; conditions: FIG. 13
# [7] = tested on: human normal embryonic kidney cells (HEK293); test: In vitro cytotoxicity assay, CCK-8; conditions: up to 50μM; FIG. 13
structure (smiles),measurement,setting,value
"O=c1nc2n(c3c1CN(Cc1ccccc1)CC3)CCN2Cc1ccc(F)c(Br)c1 [Compound 21, 7-benzyl-3-(3-bromo-4-fluorobenzyl)-2,3,6,7,8,9-hexahydroimidazo[1,2-a]pyrido[3,4-e]pyrimidin-5 (1H)-one]",IC50,A549,0.05 µM
same,IC50,MV-4-11,0.006 µM
same,IC50,Raji,0.025 µM
same,IC50,A172,0.03 µM
same,apoptotic rate,HCT116 cells [1],4.09%
same,percentage of GO/G1 phase cells,HCT116 cells [2]; 12.5 nM,40%
same,number of GO/G1 phase cells,HCT116 cells [2]; 50 nM,55%
same,HsClpP thermal stability in cells (western blot),HsClpP in HCT116 cells,can effectively stabilize the HsClpP protein at different temperatures
same,changes in mitochondrial membrane potential,HCT116 cells [3],more pronounced and concentration-dependent
same,formation of HCT116 mono-clones,HCT116 cells [4],significantly inhibited
same,intracellular ROS content,HCT116 cells [5],can induce the generation of ROS
same,change in Tm value of the HsClpP protein,HsClpP,greater than that of ONC201
same,inhibitory activity on H9C2 cells,[6],no significant inhibitory activity
same,cytotoxicity on HEK293 cells,[7],no significant cytotoxicity
